Measurements reported in patent US20230212210A1 (priority 2020, published 2023).

Biological target: T1, DC-SIGN (Homo sapiens, UniProt Q9NNX6)
T1 sequence (Q9NNX6 1-404): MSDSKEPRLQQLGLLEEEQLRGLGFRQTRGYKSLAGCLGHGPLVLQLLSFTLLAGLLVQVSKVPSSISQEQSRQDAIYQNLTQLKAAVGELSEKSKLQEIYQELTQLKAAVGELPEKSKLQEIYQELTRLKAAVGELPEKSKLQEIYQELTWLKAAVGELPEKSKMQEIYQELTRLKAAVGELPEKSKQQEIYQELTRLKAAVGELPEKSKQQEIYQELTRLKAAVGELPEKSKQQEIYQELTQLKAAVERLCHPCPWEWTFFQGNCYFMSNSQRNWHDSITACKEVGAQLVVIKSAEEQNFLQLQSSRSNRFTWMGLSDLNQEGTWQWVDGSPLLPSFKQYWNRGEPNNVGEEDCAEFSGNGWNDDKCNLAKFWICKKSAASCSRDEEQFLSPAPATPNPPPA
Assay: Binding of DC-SIGN to an O-sugar chain chip
Conditions: Cy3-labelled DC-SIGN
Method: The O-sugar chain chip and HMO chip used in the present application were purchased from Nanjing Creative Biochip Co., Ltd.
1 mg/mL S1 subunit sample and 1 mg/mL DC-SIGN sample were respectively prepared. 100 μL of sample was added to 25 μL of labeling reaction solution at 5-fold diluted concentration (containing 130 mM NaHCO3 and 50 mM NaCl, pH=8.2-8.3), an appropriate volume of Cy3-Se (cyanine 3 succinimidyl ester, an N-hydroxysuccinimide activated anthocyanidin 3 fluorescent dye) fluorescent dye (10 mg of Cy3-Se/1 mL of dimethyl sulfoxide), 0.5 μL of fluorescent dye was correspondingly added to the S1 subunit sample, 0.9 μL of fluorescent dye was correspondingly added to the DC-SIGN sample, and the mixtures were slightly shaken to form uniform reaction solutions.
2) The reaction solutions were shaken on a shaker for 1 h.
3) Dialysis after labeling: 125 μL of each reaction solution was injected into a mini dialysis tubing.
4) The reaction solutions were respectively stirred 3 times in a dialysis buffer solution (300 mL×3) in the dark, and each stirring was performed for 1 h (after the last stirring, the reaction solutions were placed overnight).
Concentration of samples to be analyzed: the 2 samples were denoted as No. 1 and No. 2 samples, respectively. The No. 1 sample referred to the S1 subunit, and the No. 2 sample referred to DC-SIGN. The above No. 1 and No. 2 samples were subjected to serial dilution to form samples at different test concentrations.
Specific dilutions were as follows: at the first dilution, the samples were diluted to a concentration of 10 μg/mL (the volume of each sample was 250 μL); at the second dilution, the samples were subjected to 1-fold dilution to a concentration of 5 μg/mL (the volume of each sample was 250 μL); at the third dilution, the samples were subjected to 1-fold dilution to a concentration of 2.5 μg/mL (the volume of each sample was 250 μL); and at the forth dilution, the samples were subjected to 1-fold dilution to a concentration of 1.25 μg/mL (the volume of each sample was 250 μL).
The corresponding arrangement of the samples at different test concentrations on an 8-subarray microarray chip is shown in Table 3.
Fences for analysis were mounted on the chip. A blocking buffer solution was added to each subarray. For an 8-subarray chip (referring to a glass substrate with 8 printed sugar chain areas, which contain the same sugar chain and are used to detect 8 different samples at the same time), 200 μL of buffer solution added to each subarray.
The subarrays were sealed with a plastic film to prevent evaporation of the blocking buffer solution, and incubated on a rotary shaker (at 60 rpm) for 30 min.
The samples to be analyzed were added to each subarray immediately. For the 8-subarray chip, 200 μL of sample was added to each subarray. The sample solution should cover the entire area of each subarray without producing air bubbles in the sample solution.
The microarray chip was sealed with a plastic film to prevent evaporation of the sample solution, and covered with aluminum foil and incubated in the dark for 1 h (on a shaker at 80 rpm).
A washing buffer solution was added to each subarray. For the 8-subarray chip, 200 μL of buffer solution was added to each subarray. The microarray chip was sealed with a plastic film, and incubated on a shaker (at 80 rpm) for 5 min. The washing buffer solution was removed immediately by using a pipette, and the above steps were repeated.
After the washing buffer solution was completely removed, the fences for analysis were unmounted from the chip, the glass slide was immersed in a washing buffer solution, and the chip was incubated on a shaker (at 80 rpm) for 10 min.
The glass slide was immersed in deionized water, and the chip was incubated on a shaker (at 80 rpm) for 2 min.
Before data scanning, the chip was dried in a clean and dust-free environment.
FIG. 9 is a diagram of the binding of the DC-SIGN protein to the O-sugar chain chip. […]

| Molecule | Binding of DC-SIGN to an O-sugar chain chip, RFU [RFU] |
| --- | --- |
| CC(=O)N[C@@H]1[C@@H](O[C@@H]2O[C@H](CO)[C@@H](O[C@@H]3O[C@H](CO)[C@H](O)[C@H](O)[C@H]3O[C@@H]3O[C@@H](C)[C@@H](O)[C@@H](O)[C@@H]3O)[C@H](O[C@@H]3O[C@@H](C)[C@@H](O)[C@@H](O)[C@@H]3O)[C@H]2NC(C)=O)[C@@H](O)[C@@H](CO)O[C@@H]1O [O33, Fucα1-2Galβ1-4(Fucα1-3)GlcNAcβ1-3GalNAcα] | 124.5 |
| Fucα1-2Galβ1-4(Fucα1-3)GlcNAcβ1-3Galβ1-3GalNAcα [O20] | 135 |
| Fucα1-2Galβ1-4(Fucα1-3)GlcNAcβ1-6GalNAcα [O46] | 65.83 |
| Galβ1-4(Fuca 1-3)GlcNAcβ1-3 GalNAcα [O32] | 68.83 |
| Galβ1-4(Fuca 1-3)GlcNAcβ1-3 GalNAcα [O44] | 69 |
| Galβ1-4(Fucα1-3)GlcNAcβ1-3Galβ1-3GalNAcα [O19] | 83.33 |
